Reference: PMC4336329 (PLoS ONE, 2015)
In all, about 310,000 compounds went through this assay and about 14,000 (4.5%) showed an effect of 50% or more. Effects have a minus sign here. The list shows a part of the results.

target: human ether-à-go-go-related gene (hERG) potassium channel (human, UniProt Q12809); test: primary screen, population patch clamp on CHO cells stably expressing hERG
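Further: peak tail current of the secondary pulse compared with the same well before compound.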

human ether-à-go-go-related gene (hERG) potassium channel, sequence (Q12809 whole entry, looked up): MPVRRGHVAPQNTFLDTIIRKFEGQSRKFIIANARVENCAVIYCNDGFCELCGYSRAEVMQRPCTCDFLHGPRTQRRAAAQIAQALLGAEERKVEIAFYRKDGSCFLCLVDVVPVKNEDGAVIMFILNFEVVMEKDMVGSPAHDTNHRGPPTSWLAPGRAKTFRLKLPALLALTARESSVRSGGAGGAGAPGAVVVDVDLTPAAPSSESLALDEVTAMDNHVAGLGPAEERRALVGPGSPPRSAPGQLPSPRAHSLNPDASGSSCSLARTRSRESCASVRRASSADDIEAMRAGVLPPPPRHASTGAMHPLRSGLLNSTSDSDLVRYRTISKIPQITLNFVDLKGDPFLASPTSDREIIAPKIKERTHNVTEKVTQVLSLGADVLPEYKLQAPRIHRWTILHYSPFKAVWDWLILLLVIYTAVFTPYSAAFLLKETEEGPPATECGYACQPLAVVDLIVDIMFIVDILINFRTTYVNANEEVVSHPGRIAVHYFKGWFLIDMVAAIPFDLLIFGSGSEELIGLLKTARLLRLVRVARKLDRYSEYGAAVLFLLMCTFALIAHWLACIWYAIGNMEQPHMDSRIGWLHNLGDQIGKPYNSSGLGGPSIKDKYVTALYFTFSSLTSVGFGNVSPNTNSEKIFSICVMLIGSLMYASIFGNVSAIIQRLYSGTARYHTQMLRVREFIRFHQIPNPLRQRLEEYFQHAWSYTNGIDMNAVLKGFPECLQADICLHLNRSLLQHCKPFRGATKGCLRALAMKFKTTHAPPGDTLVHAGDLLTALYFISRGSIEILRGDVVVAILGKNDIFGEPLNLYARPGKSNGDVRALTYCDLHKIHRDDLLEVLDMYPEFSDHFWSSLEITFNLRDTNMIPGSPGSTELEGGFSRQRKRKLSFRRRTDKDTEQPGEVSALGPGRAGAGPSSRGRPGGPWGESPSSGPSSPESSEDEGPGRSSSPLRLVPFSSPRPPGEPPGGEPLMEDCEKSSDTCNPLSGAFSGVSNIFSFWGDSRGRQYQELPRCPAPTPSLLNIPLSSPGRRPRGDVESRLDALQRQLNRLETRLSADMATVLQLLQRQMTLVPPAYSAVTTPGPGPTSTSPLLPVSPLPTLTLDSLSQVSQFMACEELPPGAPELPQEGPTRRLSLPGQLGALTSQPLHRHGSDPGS

SMILES | hERG current change (%, negative = inhibition) at 10uM [%]
O=C(NCCc1ccccc1)c1cccc(N2CCCC2=O)c1 | 2.77
CCN(CC)CCOC(=O)c1ccc(NC(=O)c2cccc(C)c2[N+](=O)[O-])cc1 | -20.8
COc1cccc(C2C(C(=O)c3ccc(C)o3)=C(O)C(=O)N2CCN2CCOCC2)c1OC (centres unmarked) | 4.82
COc1ccc2nc(C)cc(SCC(=O)N/N=C/c3ccccc3)c2c1 | 4.1
O=c1c2c(-c3cccs3)csc2ncn1/N=C/c1ccc(OC(F)F)cc1 | -5.38
O=C(c1ccc(=O)oc1)N1CCOCC1 | 18.7
C=CCC(=O)N1CCC(n2nccc2NC(=O)CCOc2ccccc2)CC1 | 14.2
O=C(NCc1nc2ccccc2[nH]1)C1=C[C@H](c2ccc(C(F)(F)F)cc2)C[C@H](OCCCCO)O1 | -40.4
Cc1cc(C)nc(-n2cc(C(=O)c3cc(F)ccc3O)cn2)n1 | 9.85
Cc1nn(Cc2ccc([N+](=O)[O-])cc2)c(=O)n1-c1ccccc1Cl | -17.1
CCc1c(C)sc(NC(=O)C2CC2c2ccccc2)c1C(N)=O (centres unmarked) | 9.05
O=C1CCC(C(=O)N2CCN(c3ccc(F)cc3)CC2)CN1CC1CCCCC1 (centres unmarked) | -41.9
O=C1C2C3c4ccccc4C(c4ccccc43)C2C(=O)N1/N=C/c1cccc(O)c1 (centres unmarked) | 10.1
CCCOP(=O)(OCCC)C(Nc1ccc(C(C)C)cc1)c1ccc([N+](=O)[O-])cc1 (centres unmarked) | 3.7
COc1ccc(C(=O)NCC2OCCc3ccccc32)cc1OC (centres unmarked) | 9.91
CCCCC(=O)N/N=C/c1c(O)n(CCC2=CCCCC2)c(=O)[nH]c1=O | 12.6
CCN(CC)c1ccc(C(=O)NC(=S)N2CCN(Cc3ccc4c(c3)OCO4)CC2)cc1 | 6.26
CCCCc1ccc(C(=O)O)nc1 | 11
O=C(COc1ccc(S(=O)(=O)N2CCCC2)cc1)Nc1ccc2c(c1)OCCO2 | 3.53
Cc1cc(C=O)c(C)n1-c1cc(C(=O)O)cc(C(=O)O)c1 | 25.6
O=[N+]([O-])c1cccc(/C=N/n2cnnc2)c1 | 2.94
CCOc1ccc(CCNC(=O)CCNC(=O)c2ccc(Br)cc2)cc1OCC | 4.21

SMILES | hERG current change (%, negative = inhibition) at 10uM [%]
Cc1ccc(CS/C(Nc2ccccc2C)=C(\C#N)C(N)=O)c(C)c1 | 7.74
CC(C)CNC(=O)CC(c1ccccc1)c1ccccc1 | 8.26
CC1=C(c2ccccc2)[N+](=O)C2(CCCC2)N1[O-] | 10.3
Cc1cc(C)c(NC(=O)CN2CCOCCOCCOCCOCC2)c(C)c1 | -2.32
Cc1ccc(-c2cc(-c3ccccc3)nc(N(C)N)n2)cc1 | 16.7
CC(C)(C)NC(=S)NCc1ccncc1 | -4.31
CC(C)Cc1nnc(NC(=O)CCC(=O)NCc2ccccc2Cl)s1 | 18.4
CCOC(=O)C1=C(CSc2nccn2C)NC(=O)NC1c1ccc2c(c1)OCO2 (centres unmarked) | 3.27
CC(=O)c1ccc(NC(=O)C2(S(=O)(=O)c3ccccc3)CC2)cc1 | -2.55
COc1ccc2oc(C(=O)OCC(=O)NC3(C#N)CCCC3)c(C)c2c1 | 1
CSc1nnc2c(n1)OC=Nc1ccccc1-2 | -3.17
COc1ccccc1N(C(=O)c1snc(C(N)=O)c1N)C(C(=O)NC1CCCC1)c1ccco1 (centres unmarked) | -35.4
Cc1ccc2nc(SCc3nnc(-c4cccs4)o3)[nH]c2c1 | -26.4
CC(=O)N[C@@H](Cc1c[nH]c2ccccc12)C(=O)NCc1ccccc1 | 13.3
CCOC(=O)N1CCN(S(=O)(=O)c2cc3c(cc2C)NC(=O)CO3)CC1 | -36.2
O=C(Oc1ccc2ccc(OC(=O)N3CCOCC3)cc2c1)N1CCOCC1 | -6.64
COc1cc(C(=O)C(=O)c2ccc(O)c(OC)c2)ccc1O | 8
CSc1ccccc1C(=O)C1CCCN(C(=O)c2cc(C(C)C)no2)C1 (centres unmarked) | -69.6
Cc1ccc(S(=O)(=O)N(CC(=O)NCc2ccncc2)Cc2ccc(F)cc2)cc1 | -79.2
COC(=O)C1=C(C)n2cnnc2NC1c1ccc(Cl)cc1 (centres unmarked) | 0.784
Brc1ccc(C=Nc2ccc3c(c2)OCCOCCOCCO3)s1 | -66.2
Cc1ccc(-n2cc(CN(C)Cc3ncc[nH]3)c(-c3cccc(C)c3)n2)cc1 | -34.8
